Test results taken from PubChem BioAssay AID894 (National Center for Advancing Translational Sciences (NCATS), 2007).
Screen size: about 150,000 compounds; about 6,500 (4.3%) were called active. Inconclusive results, whose numbers are uncertain, are shown with a selection of clear calls. Calls come from the whole dose curve; as a rule, active = well fitted inhibition curve with a large enough effect (not every such curve was filed as active); inconclusive = small, poorly fitted or top-dose-only effect, or another doubt; inactive = no such curve, though single readings can be large or run the other way. No potency is given beside an inconclusive call; the fits are too rough.

biological target: 15-hydroxyprostaglandin dehydrogenase [NAD(+)] (Homo sapiens) (UniProt P15428); assay: qHTS Assay for Inhibitors of HPGD (15-Hydroxyprostaglandin Dehydrogenase); settings: purified HPGD, NADH fluorescence kinetic, PGE2 substrate; activity change, negative = inhibition: hits give low values
Method in brief: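 NADH formation kinetics: reaction with 30 uM PGE2 and 1 mM NAD+ (final), 20 nM enzyme, Tris-HCl pH 8 with Tween 20, after 15 min compound preincubation at room temperature. Fluorescence change, last versus first of five reads.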
% is set by controls: 0 for no effect and ±100 for the full control effect; potency is the fitted concentration of half-maximal effect; tags give direction and shape of the fitted curve.

Chain of UniProt P15428 (P15428 whole entry, looked up): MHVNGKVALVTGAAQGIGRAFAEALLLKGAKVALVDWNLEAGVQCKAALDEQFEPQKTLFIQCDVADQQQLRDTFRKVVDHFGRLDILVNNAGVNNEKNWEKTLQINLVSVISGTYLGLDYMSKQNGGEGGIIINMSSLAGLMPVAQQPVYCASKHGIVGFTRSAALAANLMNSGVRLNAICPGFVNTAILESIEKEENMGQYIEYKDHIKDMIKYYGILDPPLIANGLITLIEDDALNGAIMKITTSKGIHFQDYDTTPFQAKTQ

Question: For `C=CCNc1nc(Nc2ccc(-c3nc4ccccc4o3)cc2)nc(N2CCOCC2)n1`, which Potency is on record?
Answer: The Potency was inconclusive [inhibitor, partial curve].

Question: With `Cc1ccc(N(C(=O)Cc2c[nH]c3ccccc23)C(C(=O)NC2CCCCC2)c2ccco2)cc1` (stereo unspecified) as the compound, how does the activity change, negative = inhibition read?
Answer: Its activity change, negative = inhibition is inactive: -6.45%.

Question: How did the activity change, negative = inhibition turn out when `Cn1nc(C(=O)NC2CCCCCC2)ccc1=O` was run?
Answer: Its activity change, negative = inhibition is inactive: -11%.

Question: For `C/C(=N/NC(=O)C1CCN(S(=O)(=O)c2ccc(C)cc2)CC1)c1cccc([N+](=O)[O-])c1`, which activity change, negative = inhibition is on record?
Answer: The activity change, negative = inhibition was inactive: -8.4%.

Question: Which activity change, negative = inhibition does the source give for `COC(=O)C(C(=O)OC)C1c2ccccc2C=C(C)N1C(=O)OC` (stereo unspecified) here?
Answer: The activity change, negative = inhibition was inactive: -7.32%.

Question: For `CCN(CC)S(=O)(=O)c1ccc2oc(C(=O)N3CCCCCC3)c(C)c2c1`, which Potency is on record?
Answer: The Potency was active: 7.08 µM.

Question: How did the Potency turn out when `Cc1c(NC(=O)c2cccc(-c3cc4ccccc4oc3=O)c2)cccc1-c1nc2ncccc2o1` was run?
Answer: Its Potency is inconclusive [inhibitor, partial curve].

Question: With `Cc1ccc(-n2[nH]c(C)c(C=Nc3ccc(S(=O)(=O)Nc4nc(C)cc(C)n4)cc3)c2=O)c(C)c1` as the compound, how does the Potency read?
Answer: The Potency was active: 22.4 µM.

Question: How did the Potency turn out when `CC1(C)Cc2ccccc2-c2nnc(-c3ccco3)n21` was run?
Answer: The Potency was inconclusive [inhibitor, partial curve].

Question: `Cc1cc(C(=O)NCc2ccco2)cs1` was tested. Which Potency did it give?
Answer: The Potency was active: 15.8 µM.

Question: For `O=S(=O)(c1ccccc1)c1nc(-c2ccccc2)oc1N1CCCCC1`, which Potency is on record?
Answer: The Potency was inconclusive [inhibitor, single point].

Question: Which activity change, negative = inhibition does the source give for `O=C(Cn1c(=O)oc2cc(S(=O)(=O)N3CCOCC3)ccc21)N1CCc2ccccc2C1` here?
Answer: Its activity change, negative = inhibition is inactive: -2.5%.

Question: Which Potency does the source give for `CNc1nc(-c2ccc(N(C)C)cc2)nc2ccccc12` here?
Answer: Its Potency is inconclusive [inhibitor, single point].

Question: With `CCOC(=O)COc1ccc2c(c1)C(=O)CC1(CCN(C(C)=O)CC1)O2` as the compound, how does the Potency read?
Answer: Its Potency is inconclusive [inhibitor, partial curve].

Question: `O=C(/N=C1/c2ccccc2CN1c1ccccc1)Nc1ccccc1` was tested. Which activity change, negative = inhibition did it give?
Answer: The activity change, negative = inhibition was inactive: -12%.

Question: With `COC(=O)c1ccc(COC(=O)c2ccccc2OC)cc1` as the compound, how does the activity change, negative = inhibition read?
Answer: The activity change, negative = inhibition was inactive: -22%.

Question: `CN1C(=O)c2ccc(NC(=O)C3CCCCC3)cc2C1=O` was tested. Which Potency did it give?
Answer: Its Potency is inconclusive [inhibitor, partial curve].

Question: How did the activity change, negative = inhibition turn out when `CC1CCCCC1NC(=O)c1cncc(Br)c1` (stereo unspecified) was run?
Answer: Its activity change, negative = inhibition is inactive: -2.3%.

Question: With `O=C(CSc1nccn1Cc1ccccc1)NCc1ccccc1` as the compound, how does the activity change, negative = inhibition read?
Answer: The activity change, negative = inhibition was inactive: -8.18%.

Question: With `Cc1cc(C(=O)NCC(c2ccco2)N(C)C)no1` (stereo unspecified) as the compound, how does the activity change, negative = inhibition read?
Answer: Its activity change, negative = inhibition is inactive: 3.44%.

Question: For `COc1ccc(CCn2c(N)c(C(=O)NCc3ccco3)c3nc4ccccc4nc32)cc1OC`, which Potency is on record?
Answer: Its Potency is inconclusive [inhibitor, partial curve].
